Where a name gives a salt, the structure may show the parent alone. ± gives the standard deviation of the averaged measurements. The full ranking holds about 3,200 compounds; the median of “nuclei count (viability) relative to DMSO” is about 99, and the lowest 2% start at about 16. This is one part of the list.
These molecules were tested on U2OS (assay: nuclei count (viability) relative to DMSO (% of DMSO); higher = more viable cells). Details: 10 µM; 24 h.
Experimental: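 Primary image-based screen in U2OS cells: compounds at 10 uM for 24 h, then a 1 h o-propargyl-puromycin (OPP) pulse, click labelling, and high-throughput microscopy. Mean cytoplasmic OPP intensity and nuclei count were normalised to DMSO wells within each plate (DMSO = 100) and averaged over triplicate plates.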

| Compound | nuclei count |
| --- | --- |
| CCCCCOC(=O)Nc1nc(=O)n([C@@H]2O[C@H](C)[C@@H](O)[C@H]2O)cc1F [Capecitabine (Xeloda)] | 102 |
| CCN(CC)CCOc1ccc(C(=C(Cl)c2ccccc2)c2ccccc2)cc1 [Clomiphene citrate (Z,E)] | 93.3 |
| CC(O)(P(=O)(O)O)P(=O)(O)O [Etidronic acid, disodium salt] | 86.6 |
| CC(O)(P(=O)(O)O)P(=O)(O)O [Etidronate (Didronel)] | 115 |
| Cc1ccc2c(=O)c3ccccc3n(CCCN)c2c1C | 25.4 |
| CCC1NC(=O)c2cc(S(N)(=O)=O)c(Cl)cc2N1 (stereo not given) [Quinethazone] | 97.3 |
| COc1ccccc1N1CCN(CCCCNC(=O)c2ccc3ccccc3c2)CC1 | 102 |
| c1cc2c3c(c1)c1c(n3CCNC2)CCCC1 [WAY 629 hydrochloride] | 94.2 |
| O=C1[C@H](CC[C@H](O)c2ccc(F)cc2)[C@@H](c2ccc(O)cc2)N1c1ccc(F)cc1 [Ezetimibe (Zetia)] | 105 |
| Cc1cnc(C(=O)NCCc2ccc(S(=O)(=O)NC(=O)NC3CCCCC3)cc2)cn1 [Glipizide] | 102 ± 1.4 |
| CC(C)NC[C@H](O)COc1cccc2[nH]ccc12 [(S)-(-)-Pindolol] | 113 |
| O=C(Cc1ccccc1)Nc1nc2ccc(Cl)cc2c2nc(-c3ccco3)nn12 | 97.9 |
| COc1cc(C(C)=O)ccc1O [Apocynin (Acetovanillone)] | 95.3 |
| CCCn1c(=O)[nH]c2nc(-c3ccc(S(=O)(=O)O)cc3)[nH]c2c1=O | 113 |
| CC(Cc1ccc(O)c(O)c1)(NN)C(=O)O [(S)-(-)-Carbidopa] | 103 |
| CCCCCCCCCCCCCCCCOP(=O)([O-])OCC[N+](C)(C)C [Miltefosine (Hexadecylphosphocholine)] | 103 |
| Cc1ccsc1/C=C/C1=NCCCN1C [Morantel tartrate] | 104 |
| CN(C)c1ccc(O)c2c1C[C@H]1C[C@H]3[C@H](N(C)C)C(O)=C(C(N)=O)C(=O)[C@@]3(O)C(O)=C1C2=O [Minocycline hydrochloride] | 101 |
| CCN(CC)CCNc1ccc(CO)c2sc3ccccc3c(=O)c12 [Hycanthone] | 49 |
| CNC(C)CCC=C(C)C (stereo not given) [Isometheptene mucate] | 112 |
| O=C(COc1ccc(Cl)cc1)N1CCN(Cc2ccc3c(c2)OCO3)CC1 [Fipexide hydrochloride] | 106 |
| CN(Cc1cnc2nc(N)nc(N)c2n1)c1ccc(C(=O)N[C@@H](CCC(=O)O)C(=O)O)cc1 (racemic) [Amethopterin (R,S)] | 95.2 |
| CN(Cc1cnc2nc(N)nc(N)c2n1)c1ccc(C(=O)N[C@@H](CCC(=O)O)C(=O)O)cc1 [Methotrexate] | 98.6 ± 7 |
| Nc1nc(NC2CC2)c2ncn([C@H]3C=C[C@@H](CO)C3)c2n1 [Abacavir Sulfate] | 102 |
| CCOC(=O)c1ccc(N)cc1 [Benzocaine] | 111 |
| C[C@H]1[C@H](C)CC[C@]2(C(=O)O)CC[C@]3(C)C(=CC[C@@H]4[C@@]5(C)C[C@@H](O)[C@H](O)[C@@](C)(CO)[C@@H]5CC[C@]43C)[C@H]12 [Asiatic acid] | 92.3 ± 11 |
| CCN(CC)CCOC(=O)C(c1ccccc1)c1ccccc1 [Adiphenine hydrochloride] | 102 |

| Compound | nuclei count |
| --- | --- |
| OC(CCCN1CCCCC1)(c1ccccc1)c1ccccc1 [Diphenidol hydrochloride] | 99.3 |
| CC1c2ccccc2CN1CC1=NCCN1 (stereo not given) | 95.3 |
| CCCCCCCCCCCCc1ccc(S(=O)(=O)Nc2nncs2)cc1 | 102 ± 4.7 |
| CN1CCN(c2c(F)cc3c(=O)c(C(=O)O)cn4c3c2OCN4C)CC1 [Marbofloxacin] | 105 |
| Cn1cccc1/C=C1\C(=O)NC(=O)c2ccccc21 | 102 |
| COc1cc2c(CCNC(C)=O)c[nH]c2cc1Cl [6-Chloromelatonin] | 94.1 |
| Cc1ccc(S(=O)(=O)NC(=O)NN2CCCCCC2)cc1 [Tolazamide] | 102 ± 9.2 |
| C=CC(C)(C)c1cc(/C=C/C(=O)c2ccc(O)cc2)c(OC)cc1O [Licochalcone A] | 72.1 |
| C[C@]12CC[C@@H]3c4ccc(OS(=O)(=O)O)cc4CC[C@H]3[C@@H]1CCC2=O [Estropipate] | 105 |
| CCCCNc1c(C(=O)OCC)c(C)nc2c1cnn2CC [Tracazolate hydrochloride] | 102 ± 2.8 |
| COc1cc(NC(C)CCCN)c2ncccc2c1 (stereo not given) [Primaquine diphosphate] | 15.7 |
| CC(C)c1ccc(Cn2ccc3c4c(N)nc(NC5CC5)nc4ccc32)cc1 | 29.3 |
| CCCCC1(COC(=O)CCC(=O)O)C(=O)N(c2ccccc2)N(c2ccccc2)C1=O [Suxibuzone] | 99 |
| COc1cc(-c2ccc(=O)[nH]n2)ccc1OC(F)F [Zardaverine] | 102 ± 11 |
| Cc1ccc([N+](=O)[O-])cc1S(=O)(=O)N(C)/N=C/c1cnc2ccc(Br)cn12 | 34.4 |
| CCCCCCCc1ccc(CCc2cccc(O)c2C(=O)O)cc1 | 7.35 |
| c1ccc(COCCCc2c[nH]cn2)cc1 [Proxyfan Oxalate] | 104 |
| CC[N+](CC)(CC)CC(=O)Nc1c(C)cccc1C [QX 314 chloride] | 104 |
| CC[N+](CC)(CC)CC(=O)Nc1c(C)cccc1C [QX 314 bromide] | 97.5 |
| CC[N+](CC)(CC)CC(=O)Nc1c(C)cccc1C [QX-314 bromide] | 104 |
| Cc1cc(-c2ccccc2)nnc1NCCN1CCOCC1 [Minaprine dihydrochloride] | 102 |
| NC(N)=Nc1nc(CSCC/C(N)=N/S(N)(=O)=O)cs1 [Famotidine (Pepcid)] | 102 |
| NC(N)=Nc1nc(CSCC/C(N)=N/S(N)(=O)=O)cs1 [Famotidine] | 105 |
| Cl.N=C(N)NCCC[C@H](N)C(=O)O [L-Arginine HCl] | 91.1 |
| CC1=C(/C=C/C(C)=C/C=C/C(C)=C\C(=O)O)C(C)(C)CCC1 [13-cis Retinoic acid] | 106 |
| CC1=C(/C=C/C(C)=C/C=C/C(C)=C\C(=O)O)C(C)(C)CCC1 [Isotretinoin] | 96.6 |
| CC/C(=C(/CC)c1ccc(O)cc1)c1ccc(O)cc1 [Diethylstilbestrol] | 97.9 |

| Compound | nuclei count |
| --- | --- |
| CSc1ccc2c(c1)N(CCC1CCCCN1C)c1ccccc1S2 (stereo not given) [Thioridazine hydrochloride] | 81.1 |
| CC(C)(Sc1ccc(CCN(CCCCC2CCCCC2)C(=O)NC2CCCCC2)cc1)C(=O)O | 99.4 ± 3 |
| CN(C)[C@@H]1C(O)=C(C(N)=O)C(=O)[C@@]2(O)C(O)=C3C(=O)c4c(O)cccc4[C@@](C)(O)[C@H]3[C@H](O)[C@@H]12 [Oxytetracycline (Terramycin)] | 99.7 |
| CN(C)[C@@H]1C(O)=C(C(N)=O)C(=O)[C@@]2(O)C(O)=C3C(=O)c4c(O)cccc4[C@@](C)(O)[C@H]3[C@H](O)[C@@H]12 [Oxytetracycline dihydrate] | 105 ± 1.9 |
| COc1cc(OC)c(/C=C/S(=O)(=O)Cc2ccc(OC)c(NCC(=O)O)c2)c(OC)c1 | 16.3 ± 1.4 |
| OC(CN1CCN(c2cccc(Cl)c2)CC1)C(c1ccccc1)c1ccccc1 (stereo not given) | 98.1 |
| COc1ccc(-c2ccc3c(N4CCOCC4)nc(N4C[C@@H](C)O[C@@H](C)C4)nc3n2)cc1CO | 90 |
| CC(=O)[C@H]1CC[C@H]2[C@@H]3CC=C4C[C@@H](O)CC[C@]4(C)[C@H]3CC[C@]12C [Pregnenolone] | 103 ± 4.8 |
| COc1ccc(CC2c3cc(OC)c(OC)cc3CC[N+]2(C)CCC(=O)OCCCCCOC(=O)CC[N+]2(C)CCc3cc(OC)c(OC)cc3C2Cc2ccc(OC)c(OC)c2)cc1OC (stereo not given) [Atracurium besylate] | 83.9 |
| CN(C)c1ccc(C(=C2C=CC(=[N+](C)C)C=C2)c2ccc(N(C)C)cc2)cc1 [Crystal violet] | 13 |
| Oc1cc2c(cc1O)[C@@H]1c3ccc(O)c(O)c3OC[C@]1(O)C2 [Hematoxylin (Hydroxybrazilin)] | 86 |
| CC(C(=O)O)c1ccc2c(c1)CC(=O)c1ccccc1S2 (stereo not given) [Zaltoprofen] | 107 |
| C[C@@H](O)[C@H]1C(=O)N2C(C(=O)[O-])=C(SC3Cn4cnc[n+]4C3)[C@H](C)[C@H]12 (stereo not given in full) [Biapenem] | 108 |
| Cc1nc(-c2ccc(OCC(C)C)c(C#N)c2)sc1C(=O)O [Febuxostat (Uloric)] | 109 |
| O=C1C=CC(=O)C2=C1C1c3ccccc3C2c2ccccc21 | 101 |
| CC(/C=C/C(=O)NO)=C\[C@@H](C)C(=O)c1ccc(N(C)C)cc1 [Trichostatin A] | 30.6 ± 2.3 |
| Cc1cc(Nc2nc(N[C@@H](C)c3ccc(F)cc3)c(C#N)cc2F)n[nH]1 | 45.7 |
| Cc1nc(Nc2ncc(C(=O)Nc3c(C)cccc3Cl)s2)cc(N2CCN(CCO)CC2)n1 | 58.7 |
| CCN(CCO)CCCC(C)Nc1ccnc2cc(Cl)ccc12 (stereo not given) [Hydroxychloroquine sulfate] | 96.1 |
| CCN(CCO)CCCC(C)Nc1ccnc2cc(Cl)ccc12 (stereo not given) [Hydroxychloroquine] | 85.7 |
| CCOC(=O)c1c(CSc2ccccc2)n(C)c2cc(Br)c(O)c(CN(C)C)c12 [Arbidol HCl] | 95.6 |
| CCN1CCN(Cc2ccc(-c3cc4c(N[C@H](C)c5ccccc5)ncnc4[nH]3)cc2)CC1 | 48.2 ± 8.2 |
| C=C1C(=O)O[C@@H](CCC)[C@@H]1C(=O)O [Butyrolactone 3] | 111 |
| CCOC(=O)NNc1nncc2ccccc12 [Todralazine hydrochloride] | 91.5 |
| CCCCN1CCCCC1C(=O)Nc1c(C)cccc1C (stereo not given) [Bupivacaine hydrochloride] | 98.1 |
| CC(COc1ccccc1)NC(C)C(O)c1ccc(O)cc1 (stereo not given) [Isoxsuprine hydrochloride] | 104 |

From the supplement of paper PMC8183993
